Measurements as given in PubChem BioAssay AID488969 (Vanderbilt High Throughput Screening Facility, 2010).
The full ranking holds about 110,000 compounds; the median of “z-score” is about -0.1, and the highest 2% start at about 2. The list shows a part of the results. Calls of active or inactive are those of the source.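 How the source made its calls: active means z-score in the third read window above 3 or below -3; inactive means the rest.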

Target: Metabotropic glutamate receptor 8 (Rattus norvegicus) (UniProt P70579)
Assay: rat mGluR8 modulators via GIRK flux, primary screen, cell-based, thallium flux, HTS (AID 488969)
Details: HEK293 rat mGluR8, GIRK (G protein-gated inwardly rectifying potassium channel) thallium flux, FluoZin2; at 10 µM; stronger effect = higher value; submaximal glutamate (EC20) added with thallium

UniProt P70579, sequence (P70579 whole entry, looked up): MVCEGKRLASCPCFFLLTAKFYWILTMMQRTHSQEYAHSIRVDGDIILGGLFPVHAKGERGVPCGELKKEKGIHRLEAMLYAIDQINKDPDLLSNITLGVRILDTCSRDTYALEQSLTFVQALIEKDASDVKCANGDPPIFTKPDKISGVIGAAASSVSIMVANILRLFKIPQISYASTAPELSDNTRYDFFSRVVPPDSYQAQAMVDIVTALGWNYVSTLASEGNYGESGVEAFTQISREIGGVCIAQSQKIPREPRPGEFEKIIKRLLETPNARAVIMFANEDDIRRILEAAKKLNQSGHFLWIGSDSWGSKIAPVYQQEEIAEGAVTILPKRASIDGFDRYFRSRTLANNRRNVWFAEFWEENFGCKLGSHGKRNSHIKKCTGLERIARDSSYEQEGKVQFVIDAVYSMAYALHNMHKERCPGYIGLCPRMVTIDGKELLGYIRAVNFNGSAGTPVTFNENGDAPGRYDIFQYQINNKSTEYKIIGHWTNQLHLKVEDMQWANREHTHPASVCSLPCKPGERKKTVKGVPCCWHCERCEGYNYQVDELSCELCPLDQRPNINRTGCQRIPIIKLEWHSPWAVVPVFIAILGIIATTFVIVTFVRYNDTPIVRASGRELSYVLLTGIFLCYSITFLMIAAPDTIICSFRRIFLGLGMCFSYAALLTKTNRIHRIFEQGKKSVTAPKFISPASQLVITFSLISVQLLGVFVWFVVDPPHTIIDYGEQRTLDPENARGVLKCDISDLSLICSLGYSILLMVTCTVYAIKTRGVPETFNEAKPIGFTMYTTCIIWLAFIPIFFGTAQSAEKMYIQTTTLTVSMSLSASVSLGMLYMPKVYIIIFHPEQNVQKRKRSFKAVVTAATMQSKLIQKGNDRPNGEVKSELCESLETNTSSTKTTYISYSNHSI

Row | SMILES | z-score
1 | Cc1ccc(S(=O)(=O)N(CC(=O)NCCSc2ccccn2)c2cc(C)cc(C)c2)cc1 | -0.756
2 | Cc1cccc(NC(=S)N2CCCCC2)c1 | -0.264
3 | O=C(NCCc1ccc(Cl)cc1)C1CCN(S(=O)(=O)N2CCCCC2)CC1 | 0.286
4 | COC(=O)Cc1ccc(OCC(=O)Nc2ccc(OC(F)(F)F)cc2)cc1 | -0.392
5 | Cc1c(C)n(C(=O)CSc2nncn2C)c2ccccc12 | -0.347
6 | O=C(O)CSc1ncnc2c1oc1ccccc12 | -0.235
7 | Cc1ccc[n+](-c2nc3ccccc3nc2C(=C=[N-])C#N)c1 | 0.113
8 | Cc1ccc(CC(=O)Nc2ccc(OC(F)F)c(Cl)c2)cc1C | 0.257
9 | Cc1nc(-c2coc3c(CN(C)C)c(O)ccc3c2=O)cs1 | -0.0726
10 | O=C(CCC1CCCCC1)NNC(=O)c1cnccn1 | -0.0464
11 | Cc1cccc(N(CC(=O)NCCSc2ccccn2)S(=O)(=O)c2ccccc2)c1 | -0.4
12 | Cc1ccc(S(=O)(=O)N(C)c2ccc(N)cc2)cc1 | -0.0845
13 | CCOC(=O)c1nn(-c2ccccc2C)c(=O)c(C#N)c1C | 0.836
14 | COc1ccc2occ(C(=O)c3cccs3)c2c1 | 0.191
15 | Cc1ccnc(NS(=O)(=O)c2ccc(NS(=O)(=O)c3cccs3)cc2)n1 | 0.185
16 | Cc1ccc(Nc2nc(=O)[nH]nc2C)cc1 | 0.154
17 | Cc1ccc(-c2c(C)sc(NC(=O)C3C4CCC(O4)C3C(=O)O)c2C(=O)OC(C)C)cc1 (stereo not given) | active: 4.99
18 | c1ccc2c(N3CCOCC3)nc(-c3ccncc3)nc2c1 | -0.255
19 | CCCCOc1ccc(CSC(=N)N)cc1[N+](=O)[O-] | 0.219
20 | COCCCNC(=O)/C=C/c1ccc(Cl)cc1 | 0.484
21 | CCOc1cc(CNCc2cccs2)cc(Br)c1OC | -0.659
22 | CN(C)S(=O)(=O)c1cccc(NC(=O)c2cc(-c3cccs3)nn2-c2ccccc2)c1 | -0.154

Row | SMILES | z-score
23 | CCCCCOc1ccccc1C(=O)NCCC(=O)O | -0.55
24 | C/C(=N\Nc1nc2ccccc2[nH]1)c1cc2ccccc2o1 | -0.627
25 | COc1ccc(C(=O)Nc2cc3c(cc2OC)CCCC3)cc1Br | 1.25
26 | NS(=O)(=O)c1ccc(CCNC(=O)c2cc(-c3ccccc3)nc3ccccc23)cc1 | -0.269
27 | O=C(CNC(=O)C1CCCCC1)OCc1cc(=O)oc2ccc3ccccc3c12 | -0.238
28 | Cc1cc(NC(=O)CCC(=O)N(CC(=O)NC2CCCC2)Cc2ccco2)no1 | -0.265
29 | COc1ccc(CNC(=O)/C=C/c2ccc(OCCCF)cc2)cc1OC | 0.346
30 | CC(=O)N1CCN(c2ccc(NC(=S)NC(=O)c3ccccc3)cc2)CC1 | -0.0246
31 | COc1cccc(C2NC(=O)NC(C)=C2C(=O)Nc2ccc(C)cc2)c1 (stereo not given) | -0.932
32 | COc1ccccc1CNC(=O)C(C)NS(=O)(=O)c1ccc(Br)cc1 (stereo not given) | -0.542
33 | Cc1c(C(=O)NCCSCc2ccco2)cccc1[N+](=O)[O-] | -0.046
34 | CCSc1nnc(NC(=O)NC(CC)(C(F)(F)F)C(F)(F)F)s1 | active: 3.86
35 | Cc1cc(C)c(C#N)c(SCc2nc3ccccc3[nH]2)n1 | -0.243
36 | CCCCC(=O)Nc1ccc2c(c1)nc1n2CCSC1 | 0.107
37 | CCOc1cc(NC(=O)C2CC2)c(OCC)cc1NC(=O)CCn1nnc2ccccc21 | -0.203
38 | O=C(Nc1nccs1)c1ccc(Br)c(S(=O)(=O)N2CCOCC2)c1 | 0.708
39 | O=C(O)Cn1cc(C(=O)c2cccs2)c2ccccc21 | -0.354
40 | Nc1nc(CSC(=S)N2CCOCC2)nc(Nc2ccc(F)cc2)n1 | -0.0752
41 | COc1ccc(-c2nc(NC(=O)c3ccccc3)sc2-c2ccc([N+](=O)[O-])cc2)cc1 | 0.0348
42 | O=c1oc2ccccc2c(O)c1/C=C1\C=Nc2ccccc21 | -1.73
43 | CCOC(=O)c1c(NC(=O)C2COc3ccccc3O2)sc2c1CCN(Cc1ccccc1)C2 (stereo not given) | -0.107
44 | CC(=O)Nc1ccc(-c2nnc(SCc3ccc(C)cc3)n2C)cc1 | -0.258

Row | SMILES | z-score
45 | CN(CC(=O)Nc1ccc(N2CCOCC2)cc1)CC(=O)Nc1ccc(Cl)cc1[N+](=O)[O-] | 0.0212
46 | COc1cc(NC(=S)Nc2cccnc2)cc(OC)c1 | 0.0987
47 | Nc1nonc1-n1nnc(C(=O)O)c1-c1cccs1 | 0.729
48 | Cc1cc(=O)oc(C)c1C(=O)Nc1ccc(Cl)cn1 | -0.372
49 | COc1cc(-c2noc(CCC(N)=O)n2)cc(OC)c1OC | 1.39
50 | O=C(NNC(=S)NC(=O)c1ccccc1[N+](=O)[O-])c1ccccc1[N+](=O)[O-] | 0.132
51 | O=S(=O)(N1CCOCC1)N1CCN(c2ccccc2F)CC1 | 0.83
52 | COC(=O)COc1ccc(S(=O)(=O)Nc2cc(OC)ccc2OC)cc1 | -0.514
53 | Cc1ccc(C(=O)O/N=C(\N)c2cccc([N+](=O)[O-])c2)cc1 | -0.373
54 | COc1ccccc1/C=C/C=N/NC(=O)c1ccncc1 | -1.63
55 | Cc1ccccc1CSc1nc2c(c(=O)[nH]1)CCCC2 | -1.22
56 | COc1ccc(-c2nsc(SCC(=O)Nc3ccc4c(c3)OCO4)n2)cc1 | -0.142
57 | Cc1ccccc1C(=O)NNc1ccc([N+](=O)[O-])cc1 | 0.0562
58 | Cc1ccccc1NC(=O)/C(C#N)=C\c1cccnc1 | -0.183
59 | Cc1ccc(CNc2ccc(N3C(=O)CCCC3=O)cc2[N+](=O)[O-])cc1 | -0.0934
60 | NC(=O)C1(N2CCCCC2)CCN(Cc2nc3ccccc3c(=O)[nH]2)CC1 | -0.141
61 | O=C(NNS(=O)(=O)c1ccccc1F)c1cccc(S(=O)(=O)N2CCOCC2)c1 | active: 10.4
62 | Cc1ccc(S(=O)(=O)N2CCC(C(=O)NCCc3ccc(S(N)(=O)=O)cc3)CC2)cc1 | -0.322
63 | CCOc1cc2c3c(c1)C1(C(=O)N3C(C)(C)C=C2C)C(C#N)=C(N)Oc2cc(O)ccc21 (stereo not given) | 0.542
64 | O=C(O)CC(NC(=O)OCc1ccccc1)c1ccc(Br)cc1 (stereo not given) | -0.28
65 | Nc1cc(Cl)c(N)cc1Cl | 0.222
66 | COCCNC(=O)C(c1ccc(C)o1)N(C(=O)c1snc(C(N)=O)c1N)c1ccc(C)c(C)c1 (stereo not given) | -0.119

Row | SMILES | z-score
67 | Cc1ccnc(N2C(=O)c3ccccc3C2Nc2ccc3c(c2)OCCO3)c1 (stereo not given) | -0.506
68 | O=[N+]([O-])c1cccc(/C=N/Nc2nc(N3CCOCC3)nc(N3CCOCC3)n2)c1 | -0.0486
69 | CCN(CC)CCc1c(C)[nH]c(C(=O)OCc2ccccc2)c1C | 1.8
70 | COc1ccc(S(=O)(=O)c2ccc(OC)cc2)cc1 | -0.45
71 | O=C(O)c1cnn2cc(-c3[nH]ncc3[N+](=O)[O-])cnc12 | -0.286
72 | Cc1cc(=O)c2ccccc2[nH]1 | 0.0595
73 | COCCn1nnnc1C(c1ccccc1)N1CCN(c2ccccc2)CC1 (stereo not given) | active: -3.28
74 | N#CCOc1nc(N2CCCC2)nc(N2CCCC2)n1 | -1.89
75 | CC(=O)Nc1ccc(Oc2cc(C#N)c(C#N)cc2N2CCCCCC2)cc1 | 1.3
76 | CCN1CCN(C(c2cc(OC)ccc2OC)c2nnnn2Cc2ccccc2)CC1 (stereo not given) | -0.0909
77 | CCc1nnc(NC(=O)c2cccnc2)s1 | 0.374
78 | CC1CCN(C(=O)CSc2nc3cccnc3n2C)CC1 | 0.236
79 | COc1ccc(S(=O)(=O)N2CCOCC2)cc1NC(=O)c1cccc2c(=O)c(C)c(-c3ccccc3)oc12 | -0.842
80 | O=c1[nH]c2cc3c(cc2cc1CN(CC1CCCO1)S(=O)(=O)c1ccc(Cl)cc1)OCCO3 (stereo not given) | 0.143
81 | O=C(O)c1c[nH]c(=S)n1-c1ccc(F)cc1 | 0.204
82 | CCCCC1(C)Cc2ccccc2C(=S)N1 (stereo not given) | -0.236
83 | CC1CCN(C(=S)c2cn(Cc3ccc(F)cc3)c3ccccc23)CC1 | 0.0562
84 | NS(=O)(=O)c1ccc(CCNC(=O)CN2CCN(c3cccc(Cl)c3)CC2)cc1 | 0.138
85 | CC(=O)Nc1ccc(S(=O)(=O)N2CCN(c3cc4c(cc3[N+](=O)[O-])n(C)c(=O)n4C)CC2)cc1 | -0.0655
86 | COC(=O)C1CCN(C(=O)Nc2ccc(OC)cc2)CC1 | -0.116
87 | COc1cc(S(=O)(=O)N2CCN(C(=O)c3ccccc3F)CC2)c(OC)cc1NC(C)=O | 0.0904
88 | COc1cc(CNC2CCCC2)cc(Cl)c1OCc1ccc(F)cc1 | -0.271

Row | SMILES | z-score
89 | CCn1c(/C=C/c2ccc([N+](=O)[O-])o2)nc2ccccc2c1=O | -0.689
90 | Cc1c(NC(=S)NC(NC(=O)C(C)C)C(Cl)(Cl)Cl)c(=O)n(-c2ccccc2)n1C (stereo not given) | -0.0993
91 | CN(CCO)c1cc(N2CCC3(CC2)OCCO3)c2nonc2c1[N+](=O)[O-] | 0.787
92 | O=C(COC(=O)CNC(=O)c1ccccc1)Nc1cccc(Br)c1 | -0.0953
93 | COc1ccccc1S(=O)(=O)n1cc(Cc2ccccc2)c(N)n1 | -0.756
94 | CC(C)NC(=S)N/N=C/C1=CCC2CC1C2(C)C (stereo not given) | -0.69
95 | O=[n+]1c2c(n([O-])c3cc(F)c(N4CCCC4)cc31)CCC2 | active: -3.94
96 | O=C(CSc1oc(-c2ccco2)nc1S(=O)(=O)c1ccc(Cl)cc1)NCC1CCCO1 (stereo not given) | -0.482
97 | CCCC1=C(C(=O)OCC)C(c2cc(Cl)cc(OC)c2OCC(=O)OCC)NC(=O)N1 (stereo not given) | -2.37
98 | O=C(CSc1nnc(SCc2cccc3ccccc23)s1)c1ccc2c(c1)OCO2 | 1.35
99 | NC(=S)N=Nc1c(O)n(C2OC(=O)c3ccccc32)c2ccccc12 (stereo not given) | 1.12
100 | CCn1c(-c2ccco2)n[nH]c1=S | 7.63e-05
101 | Cc1onc(-c2ccccc2Cl)c1C(=O)NCCN1Cc2ccccc2C1=O | 0.636
102 | CCOC(=O)c1c(C=O)c(C)n(Cc2ccc(Cl)cc2)c1C | 0.0766
103 | CC1(C)C([N+](=O)[O-])C(c2ccc(Cl)cc2)NC(c2ccc(Cl)cc2)C1[N+](=O)[O-] (stereo not given) | -0.14
104 | O=C(CN1CCCC1)NC12CC3CC(CC(C3)C1)C2 | -0.0651
105 | CC(=O)c1cc(OC(=O)c2ccncc2)ccc1OC(=O)c1ccncc1 | -0.347
106 | Cc1nc(SCC(N)=O)[nH]c(=O)c1CCC(C)C | -0.0972
107 | Cc1ccc(NCc2nnc(SCC(=O)N3CCc4ccccc43)n2C)cc1 | -0.0452
108 | CCOc1ccc(-c2nc(-c3ccccc3C)no2)cc1 | 0.583
109 | COc1ccc(/C=N/NC(=O)c2cc(C34CC5CC(CC(C5)C3)C4)[nH]n2)cc1O | -0.472
110 | N#C/C(=C\c1ccc(OCc2ccccc2)cc1)C(=O)Nc1nc2c(s1)CCN(Cc1ccccc1)C2 | -0.419
